The densities may have been worked out from excess volumes.
Assay: xn = mol fraction of the nth substance listed
Conditions: 101.3 kPa

CC1COC(=O)O1 (stereo not given) + CC[n+]1ccn(C)c1.O=S(=O)([N-]S(=O)(=O)C(F)(F)F)C(F)(F)F
x2 = 0
Conditions	mass density [kg/m3]
288.15 K	1209.4
293.15 K	1204.1
298.15 K	1198.8
308.15 K	1188.2
313.15 K	1182.9
323.15 K	1172.3
328.15 K	1166.9
333.15 K	1161.6
343.15 K	1151
348.15 K	1145.7

CC1COC(=O)O1 (stereo not given) + FC(S(=O)(=O)[N-]S(=O)(=O)C(F)(F)F)(F)F.C(CCC)N1C(=[N+](C=C1)C)C
x2 = 0
Conditions	mass density [kg/m3]
298.15 K	1198.8
303.15 K	1193.5
308.15 K	1188.2
313.15 K	1182.9
318.15 K	1177.6
323.15 K	1172.3
328.15 K	1166.9
333.15 K	1161.6
338.15 K	1156.3
348.15 K	1145.7

CCCCn1cc[n+](C)c1C.O=S(=O)([N-]S(=O)(=O)C(F)(F)F)C(F)(F)F + CC1COC(=O)O1
Conditions	mass density [kg/m3]
288.15 K, x1 = 0.1002	1270.8
288.15 K, x1 = 0.15	1293
288.15 K, x1 = 0.2001	1311.4
288.15 K, x1 = 0.3985	1362
288.15 K, x1 = 0.5984	1392.8
288.15 K, x1 = 0.7018	1404.4
288.15 K, x1 = 0.7915	1412.8
288.15 K, x1 = 0.8433	1417.1
288.15 K, x1 = 0.8805	1420
288.15 K, x1 = 1	1428.3
293.15 K, x1 = 0.0501	1238.3
293.15 K, x1 = 0.15	1287.9
293.15 K, x1 = 0.2001	1306.4
293.15 K, x1 = 0.3002	1335.6
293.15 K, x1 = 0.5002	1374.6
293.15 K, x1 = 0.5984	1388
293.15 K, x1 = 0.7018	1399.6
293.15 K, x1 = 0.7915	1408
293.15 K, x1 = 0.8433	1412.4
293.15 K, x1 = 0.8805	1415.3
293.15 K, x1 = 1	1423.6
298.15 K, x1 = 0.0501	1233.1
298.15 K, x1 = 0.1002	1260.5
298.15 K, x1 = 0.15	1282.8
298.15 K, x1 = 0.3002	1330.6
298.15 K, x1 = 0.3985	1352.3
298.15 K, x1 = 0.5002	1369.8
298.15 K, x1 = 0.5984	1383.3
298.15 K, x1 = 0.7018	1394.9
298.15 K, x1 = 0.7915	1403.3
298.15 K, x1 = 0.8433	1407.7
298.15 K, x1 = 0.8805	1410.6
298.15 K, x1 = 1	1419
303.15 K, x1 = 0.0501	1227.9
303.15 K, x1 = 0.15	1277.7
303.15 K, x1 = 0.2001	1296.3
303.15 K, x1 = 0.3002	1325.7
303.15 K, x1 = 0.3985	1347.4
303.15 K, x1 = 0.5002	1365
303.15 K, x1 = 0.5984	1378.5
303.15 K, x1 = 0.7915	1398.6
303.15 K, x1 = 0.8433	1403
303.15 K, x1 = 0.8805	1405.9
308.15 K, x1 = 0.0501	1222.6
308.15 K, x1 = 0.15	1272.7
308.15 K, x1 = 0.2001	1291.3
308.15 K, x1 = 0.3985	1342.5
308.15 K, x1 = 0.5002	1360.2
308.15 K, x1 = 0.5984	1373.7
308.15 K, x1 = 0.7018	1385.4
308.15 K, x1 = 0.7915	1393.9
308.15 K, x1 = 0.8433	1398.3
308.15 K, x1 = 0.8805	1401.2
308.15 K, x1 = 1	1409.7
313.15 K, x1 = 0.0501	1217.4
313.15 K, x1 = 0.1002	1245.1
313.15 K, x1 = 0.15	1267.6
313.15 K, x1 = 0.2001	1286.3
313.15 K, x1 = 0.3002	1315.8
313.15 K, x1 = 0.3985	1337.7
313.15 K, x1 = 0.5984	1369
313.15 K, x1 = 0.7018	1380.7
313.15 K, x1 = 0.7915	1389.2
313.15 K, x1 = 0.8805	1396.6
318.15 K, x1 = 0.0501	1212.2
318.15 K, x1 = 0.1002	1239.9
318.15 K, x1 = 0.2001	1281.3
318.15 K, x1 = 0.3002	1310.9
318.15 K, x1 = 0.3985	1332.8
318.15 K, x1 = 0.5002	1350.6
318.15 K, x1 = 0.5984	1364.2
318.15 K, x1 = 0.7018	1376
318.15 K, x1 = 0.7915	1384.6
318.15 K, x1 = 0.8433	1389
318.15 K, x1 = 0.8805	1391.9
323.15 K, x1 = 0.1002	1234.8
323.15 K, x1 = 0.15	1257.5
323.15 K, x1 = 0.2001	1276.3
323.15 K, x1 = 0.3002	1306
323.15 K, x1 = 0.5002	1345.8
323.15 K, x1 = 0.7018	1371.3
323.15 K, x1 = 0.7915	1379.9
323.15 K, x1 = 0.8433	1384.3
323.15 K, x1 = 0.8805	1387.3
323.15 K, x1 = 1	1395.8
328.15 K, x1 = 0.0501	1201.8
328.15 K, x1 = 0.2001	1271.3
328.15 K, x1 = 0.3002	1301.1
328.15 K, x1 = 0.3985	1323.2
328.15 K, x1 = 0.5984	1354.8
328.15 K, x1 = 0.7018	1366.7
328.15 K, x1 = 0.7915	1375.3
328.15 K, x1 = 0.8433	1379.7
328.15 K, x1 = 0.8805	1382.7
328.15 K, x1 = 1	1391.2
333.15 K, x1 = 0.0501	1196.6
333.15 K, x1 = 0.1002	1224.6
333.15 K, x1 = 0.15	1247.4
333.15 K, x1 = 0.2001	1266.3
333.15 K, x1 = 0.3002	1296.2
333.15 K, x1 = 0.3985	1318.4
333.15 K, x1 = 0.5002	1336.3
333.15 K, x1 = 0.5984	1350.1
333.15 K, x1 = 0.7018	1362
333.15 K, x1 = 0.8433	1375.1
333.15 K, x1 = 0.8805	1378.1
338.15 K, x1 = 0.0501	1191.4
338.15 K, x1 = 0.1002	1219.5
338.15 K, x1 = 0.15	1242.3
338.15 K, x1 = 0.2001	1261.3
338.15 K, x1 = 0.3002	1291.3
338.15 K, x1 = 0.3985	1313.6
338.15 K, x1 = 0.5002	1331.6
338.15 K, x1 = 0.5984	1345.4
338.15 K, x1 = 0.7018	1357.4
338.15 K, x1 = 0.7915	1366
338.15 K, x1 = 0.8433	1370.5
338.15 K, x1 = 0.8805	1373.5
338.15 K, x1 = 1	1382.1
343.15 K, x1 = 0.0501	1186.2
343.15 K, x1 = 0.1002	1214.4
343.15 K, x1 = 0.15	1237.3
343.15 K, x1 = 0.2001	1256.3
343.15 K, x1 = 0.3002	1286.5
343.15 K, x1 = 0.3985	1308.8
343.15 K, x1 = 0.5002	1326.8
343.15 K, x1 = 0.5984	1340.7
343.15 K, x1 = 0.7018	1352.7
343.15 K, x1 = 0.7915	1361.4
343.15 K, x1 = 0.8433	1365.9
343.15 K, x1 = 1	1377.5
348.15 K, x1 = 0.0501	1181.1
348.15 K, x1 = 0.1002	1209.3
348.15 K, x1 = 0.15	1232.3
348.15 K, x1 = 0.2001	1251.4
348.15 K, x1 = 0.3002	1281.6
348.15 K, x1 = 0.3985	1304
348.15 K, x1 = 0.5002	1322.1
348.15 K, x1 = 0.5984	1336.1
348.15 K, x1 = 0.7018	1348.1
348.15 K, x1 = 0.8433	1361.3
348.15 K, x1 = 0.8805	1364.3
348.15 K, x1 = 1	1373

CC1COC(=O)O1 (stereo not given) + CCCC[n+]1ccn(C)c1.O=S(=O)([N-]S(=O)(=O)C(F)(F)F)C(F)(F)F
mass density [kg/m3]
Conditions	x2 = 0	x2 = 0.0963	x2 = 0.2043	x2 = 0.3354	x2 = 0.4039	x2 = 0.5115	x2 = 0.5865	x2 = 0.7225	x2 = 0.8	x2 = 0.8498
288.15 K	1209.4	–	1321.1	1360.4	1375.9	–	1406.4	–	1430.3	1434.7
293.15 K	1204.1	1267.9	1315.9	1355.3	–	1390.4	–	1417.8	–	1429.8
298.15 K	1198.8	1262.7	1310.8	1350.3	1365.8	1385.4	1396.5	1412.9	–	1425
303.15 K	1193.5	1257.5	–	1345.2	1360.8	–	–	1408	1415.7	1420.1
308.15 K	1188.2	1252.3	–	1340.2	–	1375.5	–	–	1410.9	–
313.15 K	1182.9	–	–	–	1350.9	1370.6	–	1398.3	1406	1410.5
318.15 K	1177.6	–	1290.4	1330.2	1345.9	1365.7	–	1393.4	1401.2	–
323.15 K	1172.3	1236.7	1285.3	1325.2	1341	1360.8	–	1388.6	1396.4	1400.9
328.15 K	1166.9	1231.6	1280.3	1320.2	–	1355.9	1367.2	1383.8	–	–
333.15 K	1161.6	–	–	1315.3	1331.1	1351	1362.4	1379	1386.9	1391.4
338.15 K	1156.3	1221.3	–	1310.3	1326.2	1346.2	1357.6	1374.3	1382.2	1386.7
343.15 K	1151	1216.1	1265.1	1305.4	–	1341.3	1352.8	1369.5	1377.4	1382
348.15 K	–	–	1260.1	1300.4	1316.4	1336.5	1348	1364.8	–	1377.3
